Test results: PubChem BioAssay AID485294 (National Center for Advancing Translational Sciences (NCATS), 2010)
About 150 (0.041%) of roughly 370,000 compounds were called active. Inconclusive means that the source gave no clear call. Such entries were picked first, then a sample of the others. Calls come from the whole dose curve; as a rule, active = well fitted inhibition curve with a large enough effect; inconclusive = small, poorly fitted or top-dose-only effect; inactive = flat fitted curve, though single readings scatter. No potency is given beside an inconclusive call; the fits are too rough.

Each compound was assayed against Beta-lactamase (Escherichia coli (strain K12)) (UniProt P00811) (assay: qHTS Inhibitors of AmpC Beta-Lactamase (assay with detergent)). Settings: AmpC hydrolysis of nitrocefin, absorbance 480 nm, 0.01% Triton; series mostly up to 114 µM.
Chain of UniProt P00811 (P00811 whole entry, looked up): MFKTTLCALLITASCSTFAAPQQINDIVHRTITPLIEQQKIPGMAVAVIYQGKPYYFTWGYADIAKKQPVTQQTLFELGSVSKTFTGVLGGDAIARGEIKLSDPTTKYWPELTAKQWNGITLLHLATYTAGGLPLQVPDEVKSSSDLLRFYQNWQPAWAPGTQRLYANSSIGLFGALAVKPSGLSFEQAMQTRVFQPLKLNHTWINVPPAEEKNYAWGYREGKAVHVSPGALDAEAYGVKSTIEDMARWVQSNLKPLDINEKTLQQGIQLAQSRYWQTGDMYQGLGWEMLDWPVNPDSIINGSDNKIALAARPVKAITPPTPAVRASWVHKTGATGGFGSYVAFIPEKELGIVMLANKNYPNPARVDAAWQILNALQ
How it was run: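 20 mM phosphate pH 7.0 + 0.01% (detergent screen) or 0.0001% Triton X-100; 5.3 nM AmpC reagent; cpd preinc 15 min RT; nitrocefin (800 uM stock) to start; A480 q20 s × 4 min; Activity was normalised to no-enzyme and no-compound control wells.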
Note: nearly all actives have a fitted effect of over 25% in size.
Potency is the fitted concentration of half-maximal effect; tags give direction and shape of the fitted curve.

| Compound | Potency |
| --- | --- |
| CCCCNC(=S)NNC(=O)C1=NN(c2cc(C)ccc2C)C(=O)CC1 | inconclusive [inhibitor, single point] |
| CC(C)NC(=O)CC1C(=O)N(Cc2ccccc2)C(C)c2nc3ccccc3n21 (centres undefined) | inconclusive [inhibitor, single point] |
| FC(F)Oc1ccc(-c2csc(NNC3=NCCCCC3)n2)cc1 | inactive |
| OCn1ncn(-c2ccccc2)c1=S | inconclusive [inhibitor, full curve, poor fit] |
| CN(C(=O)COC(=O)c1cn(-c2ccccc2)nc1-c1ccccc1)C1CCS(=O)(=O)C1 (centres undefined) | inactive |
| O=C(CSc1nc(-c2ccccc2)nc2c1CCCC2)c1ccc(F)cc1 | inactive |
| Cc1nn(Cc2ccccc2)c(C)c1/C=N/NC(=O)c1ccncc1 | inactive |
| CCn1c(SCC(=O)c2ccc(C)cc2)nnc1-c1ccncc1 | inconclusive [inhibitor, full curve, poor fit] |
| Cc1ccc(NC(=O)c2ccccc2-c2ccccc2C(=O)O)cc1 | inactive |
| CC(C)N1CCN(Cc2ccc(OC3CCCC3)cc2)CC1CCO (centres undefined) | inconclusive [inhibitor, full curve, poor fit] |
| COc1ccccc1C(=O)NC(CCSC)C(=O)NCCCSc1ccccc1 (centres undefined) | inconclusive [inhibitor, full curve] |
| O=C(CCc1nc2ccccc2c(=O)[nH]1)Nc1nnc(SCc2ccccc2)s1 | inconclusive [inhibitor, full curve, poor fit] |
| COc1ccccc1NC(=O)Cn1nnc(-c2ccccc2NS(=O)(=O)c2ccccc2)n1 | inconclusive [inhibitor, full curve, poor fit] |
| CCCOc1ccc(C2/C(=C(\O)c3c(C)[nH]c(C(=O)OC)c3C)C(=O)C(=O)N2CCN(C)C)cc1 (centres undefined) | inconclusive [inhibitor, partial curve, poor fit] |
| C(=C\c1ccccc1)/C=N/Nc1nc2ccccc2s1 | inconclusive [inhibitor, partial curve] |
| CCOC(=O)c1ccc(N2C(=O)C(C)=C(C)C2=O)cc1 | inconclusive [inhibitor, partial curve] |
| COC(=O)[C@@H]1CCCN1C(=O)CCc1nnc(CCC2CCCCC2)o1 | inactive |
| Cc1ccc2c(c1)c1c3n2CCN(C(=O)CN2CCN(C)CC2)C3CCC1 (centres undefined) | inactive |
| CCN1CCN(C(=O)CCc2nc3ccccc3n2-c2ccccc2)CC1 | inconclusive [inhibitor, single point] |
